Measured values as given in PubChem BioAssay AID493208 (National Center for Advancing Translational Sciences (NCATS), 2011).
Screen size: about 44,000 compounds; about 340 (0.77%) were called active. Another 5% or so got no clear call; they are omitted. Calls come from the whole dose curve; as a rule, active = well fitted inhibition curve with a large enough effect; inconclusive = small, poorly fitted or top-dose-only effect; inactive = flat fitted curve, though single readings scatter. This is one part of the list.

Assay: Acumen qHTS Assay for Inhibitors of the mTORC1 Signaling Pathway in MEF (Tsc2-/-, p53-/-) Cells: Sytravon;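 note: plate controls were DMSO for no effect and rapamycin for full effect; nearly all actives have a fitted effect of over 50% in size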
Settings: phospho-rpS6 immunofluorescence/PI, 24 h; series mostly up to 38.3 µM; activity change, negative = inhibition: at the top concentration
In short: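 Immunofluorescence of rpS6 phosphorylation in Tsc2-/-, p53-/- MEFs after 24 h compound exposure, normalized to propidium iodide signal. Activity is expressed as % positive cells, thresholded with 7.5 nM rapamycin.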

Activity change, negative = inhibition, inactive:
CCn1c(=O)cc(OCC(=O)N2CCN(c3ccccc3OC)CC2)c2ccccc21 -0.18%
Cc1ccc(S(=O)(=O)n2nc(-c3ccco3)nc2NCc2ccccc2Cl)cc1 2.64%
Cn1c(CNC(=O)CSc2nc(-c3cccc(Cl)c3)nc3cc(=O)[nH]n23)nc2ccccc21 4.48%
COc1cccc(NC(=O)C2CCN(c3nc4ccccc4nc3C(F)(F)F)CC2)c1 -27.4%
Cc1cccc(Cn2nnc(C(=O)Nc3cc(C)ccc3C)c2N)c1 -1.63%
Cc1cccc(C)c1NC(=O)CCCN1C(=O)CCn2nc(-c3cn(C)c4ccccc34)cc21 2.27%
Cc1ccc(CNC(=O)CCCn2c(=O)c3ccccc3n(Cc3ccccc3C)c2=O)cc1 4.13%
CC(NC(=O)c1ccc2c(c1)N(Cc1ccc(Cl)cc1)C(=O)c1ccccc1S2=O)c1ccccc1 (stereo unspecified) -1.05%
COc1ccc(Cl)cc1NC(=O)Cn1cnc2c1c(=O)n(C)c(=O)n2C 8.19%
CC(C)NC(=O)C1CCCN(c2ncnc3c2nc2n3CCCCC2)C1 (stereo unspecified) 3.46%
CCCN1CCN(c2cc3c(cc2F)c(=O)c(S(=O)(=O)c2ccc(Cl)cc2)cn3C)CC1 0.384%
COc1ccc(C(=O)NCC(c2ccc(N(C)C)cc2)N2CCc3ccccc32)cc1 (stereo unspecified) -20.4%
Cn1c(=O)n(C)c2cc(N3CCOCC3)c(NC(=O)c3c(F)cccc3F)cc21 -21.2%
Cc1cc(C)c2sc(NC(=O)c3ccc(S(=O)(=O)N4CCOCC4)cc3)nc2c1 0.839%
COc1cc(OC)c(NC(=O)Nc2c(C)n(C)n(-c3ccccc3)c2=O)cc1Cl 8.8%
CCc1cc2c(-c3ccccc3)cc(=O)oc2c2c1OCN(Cc1ccc(F)cc1)C2 -1.15%
CCC(Oc1ccccc1)C(=O)Nc1ccc(OCc2cc(=O)n3ccccc3n2)cc1 (stereo unspecified) -16.2%
CCOc1ccc(CNC(=O)C2Cc3ccccc3N2C(=O)CC)cc1 (stereo unspecified) 0%
COC(=O)c1ccccc1NC(=O)c1ccc2c(=O)n3c(nc2c1)CCCCC3 -5.33%
O=C(CN1C=NS(=O)(=O)c2ccc(C(F)(F)F)cc21)Nc1cccc(C(F)(F)F)c1 0.11%
CCOC(=O)c1cc(NC(=O)c2ccc(Cl)cc2)c(=O)n2c1oc1ccccc12 0.735%
O=C(Nc1ccc(Br)cc1)c1cccc(C(=O)Nc2ccc(Br)cc2)c1 -7.28%
O=S(=O)(c1ccc(Cl)cc1)c1nc(-c2ccccc2)oc1N1CCN(c2ccccc2)CC1 -0.436%
CCOc1ccc(C2CC(=O)c3c([nH]c(C(=O)OC4CCC(C)CC4)c3C)C2)cc1 (stereo unspecified) -13.1%
COc1ccccc1N1CCN(C(=O)CN2C(=O)COc3ccc(S(=O)(=O)N4CCCC4)cc32)CC1 -15%
CCc1cccc(NC(=O)CSc2nc3ccsc3c(=O)n2CC)c1 1.12%
CCn1c(/C(C#N)=C/c2ccccc2Cl)nc2ccccc21 -12.4%
CCc1nc(SCc2cc(=O)c3cc(C)ccc3[nH]2)n[nH]1 -0.858%
Cc1ccc(CNC(=O)Cn2c(=O)n(Cc3ccccc3)c(=O)c3sc4ccccc4c32)cc1 0.854%
Cc1ccc(CN(Cc2cccn2-c2nnc(N3CCCC3=O)s2)C(=O)Nc2ccccc2C(F)(F)F)cc1 -0.0028%
Cc1ccc(S(=O)(=O)CC(=O)Nc2sc3c(c2C(N)=O)CCCC3)cc1 -11.5%
CCc1ccc(NC(=O)Cc2c(C(=O)O)c(C)cn2C)cc1 -9.62%
CC(C)CCNC(=O)Nc1ccc2c(c1)N(Cc1ccccc1)C(=O)c1ccccc1S2 -6.78%
COc1cc(OC)c(NC(=O)c2cc(C)nc3c2c(C)nn3-c2ccc(C)cc2)cc1Cl 2.22%
Cc1ccc(NC(=O)CCN2CCN(CCO)CC2)cc1C 3.49%
COc1ccc(CCNC(=O)c2ccc3c(c2)N(Cc2ccc(Cl)cc2)C(=O)c2ccccc2S3)cc1OC 5.15%
CCN(Cc1nc(-c2ccc(OC)cc2)oc1C)S(=O)(=O)c1ccc(C)cc1 5.32%
Cc1ccc(NC(=O)CN2CCSc3ccc(S(=O)(=O)N4CCCC4)cc32)cc1 -9.48%
Cc1c(CCNC(=O)c2ccco2)sc2nc(-c3ccc(F)cc3)nn12 -10.2%
CC(=O)c1ccc(NC(=O)Cn2c(-n3nc(C)cc3C)nc(C)c(C)c2=O)cc1 2.77%
CCOC(=O)Cc1ccc(NC(=O)N2CCC(CN3CCCCCC3)CC2)cc1 -8.21%
CCOc1ccccc1Nc1nnc(-c2cc3cc(OC)ccc3oc2=O)s1 -1.78%
CCN(CC)c1cc2c(cc1F)c(=O)c(S(=O)(=O)c1ccc(OC)cc1)cn2Cc1ccccc1 -9.68%
CCCCN(CC)C(=O)c1cc2c(=O)n3cccc(C)c3nc2n1C 8.24%
CCc1ccc(Oc2c(C(F)(F)F)oc3c(CN4CCC(C)CC4)c(O)ccc3c2=O)cc1 12.8%
CCCCN(CC)CCCNC(=O)Cn1ncc2c3ccccc3n(C)c2c1=O -8.03%
CCOc1ccc(S(=O)(=O)N(CC(=O)NCc2ccccc2OC)c2ccccc2)cc1 -2.79%
COc1cccc(CSc2nc3n(n2)C(CC(C)C)C(C(=O)Nc2ccccc2OC)=C(C)N3)c1 (stereo unspecified) -3.04%
COc1ccc(C(=O)N2CCC(C(=O)Nc3ccc(Cl)cc3)CC2)cc1 1.1%
Cc1cc(=O)n2nc(N(C)CC(=O)NCc3cccc(Br)c3)sc2n1 -0.938%
Cc1nc2ccc(S(=O)(=O)N(CC(=O)Nc3cccc(F)c3)Cc3ccccc3)cc2s1 0.56%
CC(C)CCn1c(=O)c2sccc2n2c(CCCC(=O)NCCc3ccccc3)nnc12 2.6%
O=C1CC(c2ccccc2)c2c(n3ncnc3[nH]c2=O)N1 (stereo unspecified) -1.08%
CCc1cccc(NC(=O)Cn2c(=O)n(CC(=O)NCCc3ccccc3)c(=O)c3ccccc32)c1 3.92%
COc1ccccc1C(=O)N1CCC(c2noc(-c3ccc(S(=O)(=O)N4CCCC4)cc3)n2)CC1 -8.59%
COc1cccc(CNC(=O)c2oc3c(c2C)-c2nn(Cc4cccc(Cl)c4)cc2CC3)c1OC 1.56%
O=C(NCCc1ccc(Cl)cc1)c1ccc(CS(=O)Cc2ccccc2Cl)o1 (stereo unspecified) -0.356%
COc1ccc(NC(=O)Cn2c(SCc3ccc(F)cc3)nc3cccnc32)cc1OC -17.9%
Cc1cccc(NC(=O)C2CCN(c3nc4ccccc4[nH]3)CC2)c1C 12.9%
Cc1ccc(C)c(CNC(=O)CCn2cccn2)c1 -14%
O=C(Nc1ccc2nc(SCC(=O)N3CCCC3)sc2c1)c1cccc(Br)c1 -7.81%
